In PubChem BioAssay AID686979 (National Center for Advancing Translational Sciences (NCATS), 2013):
In all, about 420,000 compounds went through this assay and about 50,000 (12%) were called active. Another 26% or so got no clear call; they are omitted. Calls follow the shape of the dose curve; as a rule, active = well fitted inhibition curve with a large enough effect; inconclusive = small, poorly fitted or top-dose-only effect; inactive = flat fitted curve, though single readings scatter. This is a selection; strong and weak results do not stand in their true shares. Some compounds were tested as several samples or in several runs, with calls that do not always agree.

Assay: qHTS for Inhibitors of human tyrosyl-DNA phosphodiesterase 1 (TDP1): qHTS in cells in presence of CPT; also: nearly all actives have a fitted effect of over 55% in size
Conditions: chicken DT40 Tdp1-/-;hTDP1 cells + 20 nM CPT, ATP luminescence, 48 h; series mostly up to 46.2 µM; activity change, negative = growth inhibition: at the top concentration
Summary of the method: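 Chicken DT40 Tdp1-/- cells complemented with human TDP1, 400 cells/well, exposed to compounds plus 20 nM camptothecin for at least 48 h at 37 C; viability read as ATP content by CellTiter-Glo luminescence.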
% is scaled to controls: 0 for no effect and ±100 for the full control effect; potency is read from the fitted curve at half-maximal effect.

Row | Structure (SMILES) | activity change, negative = growth inhibition | Potency
1 | O=C(O)c1cc(O)c2c(c1)C(=O)c1cccc(O)c1C2=O | inactive: -11.4% | 
2 | CC(C)C[C@H]1CN(CCCC[C@H]2CNC(=O)C(=O)N2Cc2ccccc2)C(=O)C(=O)N1CCc1ccccc1 | inactive: -0.765% | 
3 | Cc1oc(-c2cccc(Cl)c2)nc1CSCC(=O)O |  | active: 16.4 µM
4 | CCOC(=O)[C@H](CCc1ccccc1)N[C@@H](C)C(=O)N1Cc2ccccc2C[C@H]1C(=O)O | inactive: -9.56% | 
5 | CC(CCc1ccccc1)NCC(O)c1ccc(O)c(C(N)=O)c1 (stereo not given) |  | inactive
6 | COc1cccc(-c2ccnc3[nH]n(-c4ccccc4)c(=O)c23)c1 | inactive: -11.1% | 
7 | CCCCCC[C@@H]([C@@H](C)O)n1cnc2c(N)ncnc21 |  | inactive
8 | Cc1cc(C)nc(NC(=O)CSc2nccc(C)n2)n1 | inactive: -2.86% | 
9 | O=S(=O)(c1ccc(N2CCN(Cc3ccccc3)CC2)nc1)N1CCCC1 |  | active: 16.4 µM
10 | O=C(C1=C[C@@H](c2ccc(C(F)(F)F)cc2)C[C@@H](OCc2ccc(CO)cc2)O1)N1CCOCC1 | inactive: -9.47% | 
11 | Cc1ccc(C(=O)NCC(c2ccc3c(c2)OCO3)N2CCOCC2)cc1C (stereo not given) |  | active: 20.6 µM
12 | O=S1(=O)[C@H]2C[C@@H]3C=C[C@@]2(CN1Cc1cccc(Cl)c1)O3 | inactive: 7.44% | 
13 | Cc1ccc(N2CCN(C(=O)N3CCOCC3)CC2)cc1C | inactive: 6.24% | 
14 | COc1ccc([C@@H]2CC(=O)c3c(O)cc(O[C@@H]4OC(CO[C@@H]5OC(C)[C@H](O)[C@@H](O)[C@H]5O)[C@@H](O)[C@H](O)[C@H]4O)cc3O2)cc1O (stereo not given in full) | inactive: 1.74% | 
15 | C[C@@H]1CN([C@@H](C)CO)C(=O)CCCn2nncc2CO[C@H]1CN(C)S(=O)(=O)c1ccc(Cl)cc1 | inactive: -6.22% | 
16 | CCOCCCNC(=O)c1ccccc1SCC | inactive: -6.22% | 
17 | O=C(Nc1cccc(S(=O)(=O)NC2=NCCC2)c1)c1cc(-c2ccccn2)nc2ccccc12 |  | active: 23.1 µM
18 | CCCN1C[C@H](CSC)C[C@@H]2c3cccc4[nH]cc(c34)C[C@H]21 |  | inactive
19 | CCOC(=O)C[C@H]1c2ccc(C(F)(F)F)cc2S(=O)(=O)N1C(C)C | inactive: -15.9% | 
20 | COc1ccccc1N1CCN(c2ccc(N3C(=O)CCC3=O)cc2[N+](=O)[O-])CC1 | inactive: 1.62% | 
21 | CCc1ccc2oc(C(=O)Nc3nonc3CC)c(C)c2c1 | inactive: -23.2% | 
22 | C=CCOC(=O)C1=C[C@H](c2ccc(C(F)(F)F)cc2)C[C@H](OCCCCO)O1 | inactive: -20.3% | 
23 | CCC(CC)C(=O)Nc1cccc(-c2nc3ccccc3s2)c1 |  | active: 20.6 µM
24 | Cc1ccc(/C=N/NC(=O)C(C)NC(=O)c2ccccc2)cc1 (stereo not given) | inactive: 26.1% | 

Row | Structure (SMILES) | activity change, negative = growth inhibition | Potency
25 | Cc1ccc2c(c1)c1c3n2CCN(CC#N)C3CCC1 (stereo not given) | inactive: 36.5% | 
26 | C/C(=C\COc1cc(=O)[nH]c2ccccc12)CCC(O)C(C)(C)O (stereo not given) |  | inactive
27 | COc1ccc(-c2nnc(S/C(=C/c3ccc(Cl)cc3)C(=O)O)o2)cc1 | inactive: 7.75% | 
28 | C[C@@H]1CN([C@@H](C)CO)C(=O)CCCn2nncc2CO[C@@H]1CN(C)C(=O)Nc1ccc(N2CCN(C)CC2)cc1 | inactive: 5.91% | 
29 | CCCN(CC(=O)Nc1ccccc1C)C(=O)c1ccc(COc2ccccc2)cc1 |  | active: 23.1 µM
30 | Cc1ccc(NC(=O)/C(=C/c2cccc(Br)c2)NC(=O)c2ccco2)cc1 | inactive: -5.05% | 
31 | COCC(C)NCc1ccccc1C (stereo not given) | inactive: 14.8% | 
32 | Cc1ccc([C@H]2C[C@H](O)[C@@H](n3cc(C4CC4)nn3)CN2C(=O)c2cccs2)cc1 | inactive: -21.1% | 
33 | CCOC(=O)c1ccccc1Nc1cn(C(C)=O)c2ccccc12 |  | active: 3.66 µM
34 | CCOc1ccccc1C1c2[nH]c3ccccc3c2C[C@H]2C(=O)N(C3CCN(Cc4ccccc4)CC3)CC(=O)N12 (stereo not given in full) |  | active: 5.8 µM
35 | O=[N+]([O-])c1ccccc1SNc1ccccn1 |  | active: 20.6 µM
36 | Oc1c(CN2CCCC(C(F)(F)F)C2)cc(Cl)c2ccccc12 (stereo not given) |  | active: 18.4 µM
37 | CCn1c(SCC(=O)NCc2ccco2)nnc1-c1ccc(N)cc1 | inactive: 14.8% | 
38 | C[C@H](CO)N1C[C@H](C)[C@@H](CN(C)C(=O)Nc2ccccc2)Oc2c(NC(=O)c3ccncc3)cccc2C1=O | inactive: 36.9% | 
39 | CCN(CCCNC(=O)CNC(=O)Cn1cnc2ccccc2c1=O)c1ccccc1 | inactive: 33.9% | 
40 | COC(=O)c1ccccc1NC(=O)c1ccc(F)cc1 | inactive: -29.6% | 
41 | COc1cc(C(=O)COC(=O)c2ccc3c(c2)OCCO3)cc(OC)c1OC |  | active: 14.6 µM
42 | CC1(C)OC2C(CO)OC(n3cnc4c(=O)[nH]cnc43)C2O1 (stereo not given) | inactive: -6.51% | 
43 | C[C@H](CO)N1C[C@H](C)[C@@H](CN(C)S(=O)(=O)c2ccccc2)OCc2cnnn2CCCC1=O | inactive: 3.43% | 
44 | COc1ccc(NC(=O)CCN2C(=O)C3C4C=CC(C4)C3C2=O)cc1 (stereo not given) | inactive: 10.6% | 
45 | Cc1ccc(C2CC(=O)C=C(NCc3ccccc3)C2)cc1 (stereo not given) |  | active: 5.17 µM
46 | C[C@@H](N)C1CCC(C(=O)Nc2ccncc2)CC1 (stereo not given in full) | inactive: -11.6% | 
47 | COc1ccc(CN2[C@@H](CC(=O)O)c3cc(C(F)(F)F)ccc3S2(=O)=O)cc1 | inactive: -19.4% | 
48 | COc1ccc(S(=O)(=O)c2c(O)c3ccc(C(=O)Nc4ccccc4Cl)cc3[nH]c2=O)cc1 | inactive: 8.7% | 

Row | Structure (SMILES) | activity change, negative = growth inhibition | Potency
49 | Cc1[nH]nc(N=CC2=C(O)CC(c3ccco3)CC2=O)c1-c1ccccc1 (stereo not given) | inactive: -2.32% | 
50 | Cc1cc(C)cc(NC(=O)Cn2nnc(C(=O)NCc3ccco3)c2N)c1 | inactive: 4.71% | 
51 | Nc1nc2nonc2nc1N | inactive: 40.7% | 
52 | O=c1[nH]c(C2CCCN(S(=O)(=O)c3ccccc3)C2)nc2c1nnn2Cc1ccc(OC(F)(F)F)cc1 (stereo not given) | inactive: -5.71% | 
53 | COc1ccc(NC(=S)Nc2ccccc2)cc1 | inactive: -28% | 
54 | COCCNc1nc(NCC2CCCCC2)c2sc(-c3ccccc3)cc2n1 |  | active: 14.6 µM
55 | Cc1c(NC(N)=O)c(=O)n(-c2ccccc2)n1C | inactive: 39.5% | 
56 | CCCOc1ccc(N2C(=O)CC(NCc3ccc(S(N)(=O)=O)cc3)C2=O)cc1 (stereo not given) | inactive: 40.1% | 
57 | C/C(N)=C(/C#N)C(=O)CSc1nnc(Nc2cccc(C)c2)s1 | inactive: -29.8% | 
58 | O=C(Cn1c(=O)n(Cc2ccco2)c(=O)c2c3c(sc21)CCCCC3)c1ccccc1 |  | active: 14.6 µM
59 | O=C(NC1CCCC1)c1ccc2c(c1)N(Cc1ccc(C(F)(F)F)cc1)C(=O)c1ccccc1S2 |  | active: 20.6 µM
60 | COc1ccc(N(CC(=O)NCc2ccc(F)cc2)S(=O)(=O)c2c(C)noc2C)cc1 | inactive: -21.1% | 
61 | CC(OC(=O)C1=COCCO1)C(=O)NC1CCCCC1C (stereo not given) | inactive: -6.46% | 
62 | Cc1[nH]n(-c2ccccc2)c(=O)c1N=Nc1ccccc1O |  | active: 0.517 µM
63 | COc1ccc2c(c1)c(CC(=O)N1CCOCC1)c(C)n2C(=O)c1ccc(Cl)cc1 | inactive: 4.42% [at 4.12 µM] | 
64 | CCc1cc(S(N)(=O)=O)cc(CC)c1NC(C)=O | inactive: 38.7% | 
65 | CN(C)S(=O)(=O)n1cc(/C=C(\NC(=O)c2ccccc2F)C(=O)NCCCn2ccnc2)c2ccccc21 | inactive: -27.8% | 
66 | CCN1C(=O)[C@H]2[C@@H](c3ccc(C(F)(F)F)cc3)N[C@]3(CCCN(Cc4ccc(Br)cc4)C3=O)[C@H]2C1=O |  | active: 13 µM
67 | CCN1CCN(C(=O)NC(C(=O)NC2C(=O)N3C2SC(C)(C)C3C(=O)O)c2ccccc2)C(=O)C1=O (stereo not given) | inactive: 6.71% | 
68 | Cc1ccc(NC(=O)c2cc(C)nn2-c2ccccc2)cc1 | inactive: -20.2% | 
69 | NC[C@@H](O)c1ccc(O)c(O)c1 | inactive: -24.8% | 
70 | Clc1ccccc1-c1nc(-c2ccncc2)no1 |  | inactive
